Laboratory results: patent US11542275B2, “Substituted imidazolidin-2-one derivatives as PRMT5 inhibitors” (Aurigene Discovery Technologies Limited, priority 2018, dated 2023)

How the values were obtained:
[1] = target: PRMT5/MEP50 Complex (Homo sapiens (Human), UniProt O14744); assay: PRMT5 inhibition based on TR-FRET assay; type: biochemical; details: 32 nM PRMT5:MEP50 complex, 50 nM Histone-H4 peptide, 1 μM SAM, 90 minutes at room temperature
Excerpt: Protein arginine methyltransferase 5 (PRMT5) is a type II arginine methyltransferase that catalyze mono- and symmetric demethylation on arginine residues of histone or non-histone proteins in presence of S-adenosylmethionine (AdoMet or SAM) a cofactor responsible for donating the methyl group. PRMT5 is reported to be overexpressed in several human cancers. To identify compounds that inhibit the PRMT5 and decrease its activity, a TR-FRET based assay has been established. Time-resolved fluorescence resonance energy transfer (TR-FRET) HTS assays are homogeneous proximity assays where the interaction of two dye-labeled binding partners is detected by the energy transfer between a donor and an acceptor dye, and the subsequent light emission by the acceptor dye. PRMT5 catalyzes Histone H4 peptide which is biotin tagged to the Lysine amino acid at carboxyl end, in presence of S-adenosyl-1-methionine (SAM) to methylate the peptide. The antibody specific to mono methylated H4 peptide (H4R3) with Ig conjugate binds to the methylated peptide, indirectly binding to the Europium lanthanide. […]
The compound dilutions were prepared as 7.5% DMSO stock solutions in assay buffer. […] The plates were then read on Victor-3 with Excitation at 340 nm and Emissions collected at 615 and 665 nm in TR-FRET protocol. […]

[2] = system: Z138 cells; assay: Z138 cell proliferation assay (XTT); type: cell-based; details: Homo sapiens, Z-138, 168 h, 7 day treatment, 9-point dose response starting with 10 μM, XTT read at 465 nm
Description: Z138 cells were seeded in a 96-well round-bottom plate and treated with varying concentration of compound. The final DMSO concentration was maintained at 0.05%. The selected compounds of present invention were screened in a 9-point dose response format starting with 10 μM and 1/3rd serial dilution. On the 4th day, cells were spun down and media was replaced while maintaining the initial compound concentration in each well. At the end of the 7th day, cells were spun down and media was aspirated. 50 µL of XTT containing media was added to the wells. The plates were read using the M3 spectrophotometer at 465 nm. GI50 values were calculated by fitting the dose response data to sigmoidal curve fitting equation using GraphPad Prism software V7.
The compounds were screened in the above mentioned assay procedures for determining IC50 and GI50 values in inhibiting PRMT5.

| SMILES | IC50 [1] [µM] | GI50 [2] [µM] |
| --- | --- | --- |
| O=C1N(Cc2ccc(N3CCOCC3)cn2)CCN1C[C@H](O)CN1CCc2ccccc2C1 [Compound 4, (R)-1-(3-(3,4-dihydroisoquinolin-2(1H)-yl)-2-hydroxypropyl)-3-((5-morpholinopyridin-2-yl)methyl)imidazolidin-2-one] | 0.026 | – |
| N#CC1CCN(c2ccc(CN3CCN(C[C@H](O)CN4CCc5ccccc5C4)C3=O)nc2)CC1 [Compound 9, (R)-1-(6-((3-(3-(3,4-dihydroisoquinolin-2(1H)-yl)-2-hydroxypropyl)-2-oxoimidazolidin-1-yl)methyl)pyridin-3-yl)piperidine-4-carbonitrile] | – | < 0.1 |
| CC(=O)N1CCC(c2ccc(CN3CCN(C[C@@H](O)CN4CCc5ccccc5C4)C3=O)nc2)CC1 [Compound 45, (S)-1-((5-(1-acetylpiperidin-4-yl)pyridin-2-yl)methyl)-3-(3-(3,4-dihydroisoquinolin-2(1H)-yl)-2-hydroxypropyl)imidazolidin-2-one] | 0.018 | – |
